Several values for one entry are separate records, joined by “and”; a condition that tells them apart may be missing. Equal entries are not always repeated. The campaign covered roughly 390,000 compounds. About 4,000 (1%) were called active. This list was built around the results that the source calls inconclusive (neither active nor inactive); the mix of calls is not that of the screen. Calls follow the shape of the dose curve; as a rule, active = well fitted inhibition curve with a large enough effect; inconclusive = small, poorly fitted or top-dose-only effect; inactive = no such curve, though single readings can be large or run the other way. A potency beside an inconclusive call is a rough fit, not a confirmed value.
Target: Thioredoxin reductase 1, cytoplasmic (Rattus norvegicus) (UniProt O89049)
Chain of UniProt O89049 (O89049 whole entry, looked up): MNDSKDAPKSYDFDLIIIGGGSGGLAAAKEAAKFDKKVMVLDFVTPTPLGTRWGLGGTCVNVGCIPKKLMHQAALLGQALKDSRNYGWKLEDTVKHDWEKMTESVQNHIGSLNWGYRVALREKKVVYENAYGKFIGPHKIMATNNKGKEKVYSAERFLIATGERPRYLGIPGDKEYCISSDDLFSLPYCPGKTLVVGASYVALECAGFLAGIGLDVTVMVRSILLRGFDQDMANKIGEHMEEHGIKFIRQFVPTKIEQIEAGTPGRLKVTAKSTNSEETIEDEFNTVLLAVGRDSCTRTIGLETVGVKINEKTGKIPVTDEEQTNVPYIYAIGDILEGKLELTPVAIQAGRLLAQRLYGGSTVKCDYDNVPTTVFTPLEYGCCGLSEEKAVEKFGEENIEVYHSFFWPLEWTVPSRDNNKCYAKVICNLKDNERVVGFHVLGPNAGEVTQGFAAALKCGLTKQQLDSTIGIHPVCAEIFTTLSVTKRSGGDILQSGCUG
Assay: qHTS Assay for Inhibitors of Mammalian Selenoprotein Thioredoxin Reductase 1 (TrxR1): qHTS; also: nearly all actives have a fitted effect of over 65% in size
Settings: recombinant rTrxR1, NADPH fluorescence consumption, selenite substrate; series mostly up to 114 µM; activity change, negative = inhibition: at the top concentration
Method in brief: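 Rat TrxR1 (90 nM in the dispensed reagent) was pre-reduced with 400 uM NADPH for 5 min at room temperature, then incubated with compound for 15 min. After 400 uM selenite was added, NADPH fluorescence (Ex 340/Em 450 nm) was followed for 8 min.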
% is scaled to controls: 0 for no effect and ±100 for the full control effect; potency is read from the fitted curve at half-maximal effect; tags tell the direction and shape of the fitted curve.

Compound | Potency | activity change, negative = inhibition
Cc1ccc(/C=N/n2c(C3CCCCC3)n[nH]c2=S)o1 | inconclusive: 50.1 µM [inhibitor, partial curve] | –
CC(=O)N(\C=C/C=C/C=C1\Sc2ccccc2C1=O)c1ccccc1 | inconclusive: 39.8 µM [inhibitor, single point] | –
CC(Oc1ccc2ccccc2c1)C(=O)NNC(=S)NC(=O)c1ccco1 (configuration not stated) | inconclusive: 22.4 µM [inhibitor, full curve] | –
CC(C)OCCCn1c(=N)c(C(N)=S)cc2c(=O)n3ccccc3nc21 | inconclusive: 15.8 µM [inhibitor, full curve] | –
O=c1c([N+](=O)[O-])c(N2CCCCC2)c2ccccc2n1-c1ccccc1 | inconclusive: 79.4 µM [inhibitor, single point] | –
Cn1c2ccccc2c2nnc(SCCN3CCOCC3)nc21 | inconclusive: 70.8 µM [inhibitor, partial curve] | –
COc1ccc(C(=O)CSc2nnc(-c3ccoc3C)n2CC2CCCO2)cc1 (configuration not stated) | inconclusive: 25.1 µM [inhibitor, single point] | –
COc1ccc2cc(C(c3nnnn3CCc3ccccc3)N3CCCC(C)C3)c(=O)[nH]c2c1 (configuration not stated) | inconclusive: 35.5 µM [inhibitor, single point] | –
COCCCn1c(SCC(=O)N2CCCC(C)C2)nnc1-c1ccco1 (configuration not stated) | inconclusive: 35.5 µM [inhibitor, partial curve, poor fit] | –
O=[N+]([O-])c1ccc(C2Nc3cccc4cccc(c34)N2)cc1 | active: 35.5 µM | –
CC(C)(C)c1ccc(C(=O)CCCN2CCC(OC(c3ccccc3)c3ccccc3)CC2)cc1 | inconclusive: 8.91 µM [inhibitor, partial curve, poor fit] | –
CC(=O)N/C(=C/c1ccccc1)c1sc2ccccc2[n+]1CCCCI | active: 44.7 µM | –
Cn1c(COc2ccc(Br)cc2)nnc1SC1CCc2ccccc2C1=O (configuration not stated) | – | inactive: -10.3%
Nc1c(N(Cc2ccco2)C(=O)COc2ccccc2F)c(=O)[nH]c(=O)n1Cc1ccccc1 | inconclusive: 56.2 µM [inhibitor, partial curve, poor fit] | –
O=C1COc2ccc(C(=O)COC(=O)CNC(=O)c3ccco3)cc2N1 | inconclusive: 50.1 µM [inhibitor, partial curve] | –
Oc1cccc(C=NCc2ccccc2)c1O | inconclusive: 79.4 µM [inhibitor, partial curve] | –
CC(=O)N1CCN(c2ccc(NCc3ccccc3)cc2)CC1 | inconclusive: 44.7 µM [inhibitor, partial curve] | –
CCCn1c(N)c(N(CCOC)C(=O)c2cc(-c3ccco3)nc3ccccc23)c(=O)[nH]c1=O | inconclusive: 56.2 µM [inhibitor, single point] | –
Cc1ccc(CNC(=O)CCS(=O)(=O)c2ccc3c(c2)CC(C)N3C(=O)C2CC2)o1 (configuration not stated) | inconclusive: 56.2 µM [inhibitor, partial curve] | –
COc1ccc(C2CC23N=C(c2ccccc2)OC3=O)cc1 (configuration not stated) | inconclusive: 14.1 µM [inhibitor, partial curve] | –
O=C(Cn1cnc2c(nnn2-c2ccc(F)cc2)c1=O)NCc1ccco1 | inconclusive: 22.4 µM [inhibitor, single point] | –
CCn1c2ccccc2c2cc(NC(=O)COc3ccc(C)c(C)c3)ccc21 | inconclusive: 89.1 µM [inhibitor, single point] | –
O=C(/C=C(\O)c1ccccc1)C(=O)NNC(=O)c1ccccc1 | – | inactive: -5.41%

Compound | Potency | activity change, negative = inhibition
CCOc1cc(/C=N/NS(=O)(=O)c2ccccc2)ccc1OS(=O)(=O)c1ccc(C)cc1 | – | inactive: 17.3% [at 57.1 µM]
CC1=Cc2ccccc2C(C#N)N1C(=O)c1ccccc1 (configuration not stated) | – | inactive: -8.9% [at 57.1 µM]
CS(=O)(=O)Nc1ccc2c(c1)C(=O)OC2 | inconclusive: 89.1 µM [inhibitor, single point] | –
C[C@@H]1CC[C@@]2(O[C@@H](CCO)C[C@@H](O)[C@@H]2O)O1 | inconclusive: 31.6 µM [inhibitor, partial curve, poor fit] | –
O=C1C(C2=C(O)c3ccccc3C2=O)=Nc2ccccc21 | active: 14.1 µM | –
Cc1ccc(/C=C/C(=O)O)cc1S(=O)(=O)N(CCO)CCO | inconclusive: 22.4 µM [inhibitor, single point] | –
CCOC(=O)COc1ccc(/C=C2/C(=O)NN(c3ccc(F)cc3)C2=O)cc1OC | inconclusive: 56.2 µM [inhibitor, single point] | –
O=C(CSc1nnc(-c2ccccc2)n1-c1ccc(Cl)cc1)NNC(=S)Nc1ccccc1 | inconclusive: 8.91 µM [inhibitor, partial curve, poor fit] | –
COc1ccccc1-n1cnc2cc(NCc3ccccc3O)ccc21 | – | inactive: 18.8%
COc1ccc(OC)c(CCNC(=O)CCc2cn(C)c3ccccc23)c1 | – | inactive: 17.2%
O=C1CC(c2ccco2)CC(O)=C1C=Nc1cc(Cl)cc(Cl)c1 (configuration not stated) | inconclusive: 4.47 µM [inhibitor, single point] | –
C=CCn1c(CSCc2ccccc2)nnc1SCC(=O)N1CCN(c2ccccc2)CC1 | inconclusive: 79.4 µM [inhibitor, single point] | –
COc1ccc(C)cc1S(=O)(=O)N(C)CC(=O)NCc1ccco1 | inconclusive: 31.6 µM [inhibitor, single point] | –
COc1cccc(Oc2c(C)oc3c(CN4CCOCC4)c(O)ccc3c2=O)c1 | inconclusive: 56.2 µM [inhibitor, partial curve, poor fit] | –
Cc1cccc(NC(=O)COC(=O)Cc2cccs2)c1C | – | inactive: -9.78%
COc1ccc(C(=O)NC(=S)Nc2nnn(C)n2)cc1 | inconclusive: 50.1 µM [inhibitor, partial curve, poor fit] | –
COc1ccc(-c2ccc(=O)n(CC(=O)NCc3ccco3)n2)cc1 | inconclusive: 56.2 µM [inhibitor, partial curve, poor fit] | –
COc1ccc(CCC(=O)Nc2sccc2C#N)cc1 | inconclusive: 89.1 µM [inhibitor, single point] | –
CCn1ncc(/C=C/C(=O)NCc2cn(C)nc2C)c1C | – | inactive: -10.4% [at 57.1 µM]
CC(C)(C)C1C/C(=C/c2ccccn2)C(=O)/C(=C/c2ccccn2)C1 (configuration not stated) | active: 35.5 µM | –
Cc1ccc(Nc2cccccc2=O)cc1 | inconclusive: 44.7 µM [inhibitor, single point] | –
CCCC(=O)N1CCN(c2ccc(NC(=S)NC(=O)c3cccc(C)c3)cc2)CC1 | inconclusive: 20 µM [inhibitor, single point] | –
COc1cccc(-c2ccc3c(N)c(C(=O)Nc4ccc(C)c(F)c4)sc3n2)c1 | inconclusive: 89.1 µM [inhibitor, single point] | –

Compound | Potency | activity change, negative = inhibition
O=C(CN1C(=O)NC2(CCCC2)C1=O)N1CCN(c2ccc(C(F)(F)F)cc2[N+](=O)[O-])CC1 | – | inactive: 16.9%
c1ccc2c(c1)sc[n+]2CCC1CCCCC1 | – | inactive: -21%
COC(=O)C1=C(C(=O)OC)C(C(=O)OC)C(C(=O)OC)C(C(=O)OC)(C(=O)OC)C(C(=O)OC)=C1C(=O)OC (configuration not stated) | inconclusive: 3.55 µM [inhibitor, single point] | –
CCOC(=O)/C(=C\c1ccc(OC)c(OC)c1)C(=O)c1cccnc1 | inconclusive: 50.1 µM [inhibitor, partial curve] | –
CCOC(=O)C1CCCN(C(=O)CCCn2nnnc2CN2CCOCC2)C1 (configuration not stated) | inconclusive: 50.1 µM [inhibitor, partial curve] | –
Cc1cccc(CS(=O)(=O)c2ncc(Cl)c(C(=O)NCc3ccccc3)n2)c1 | active: 2.82 µM and active: 6.31 µM | –
CN1CC=C2C(C#N)=C(N)C(C#N)(C#N)[C@H](c3ccoc3)[C@H]2C1 | – | inactive: 4.74% [at 57.1 µM]
O=C(NCCc1ccccc1)c1cc(Sc2ccc(F)cc2F)nc2ccccc12 | – | inactive: 11% [at 57.1 µM]
COc1ccc(CNC(=O)C/C(C)=N/NC(=O)C23CC4CC(CC(C4)C2)C3)cc1 | inconclusive: 25.1 µM [inhibitor, single point] | –
COc1cccc(NC(=S)N/N=C2/CCCCc3ccccc32)c1 | – | inactive: 11.2%
COc1ccc(-c2nc(CN3CCN(C(=O)c4ccco4)CC3)c(C)o2)c(F)c1 | inconclusive: 89.1 µM [inhibitor, partial curve, poor fit] | –
O=C(Nc1ccc2nn(-c3ccccc3)nc2c1)c1ccc(-c2cccc(Cl)c2)o1 | inconclusive: 89.1 µM [inhibitor, single point] | –
COc1ccc(CNC(=O)c2ccc(NC(=O)CC3SC(N4CCCC4)=NC3=O)cc2)cc1 (configuration not stated) | inconclusive: 70.8 µM [inhibitor, single point] | –
C=C(C)COc1ccc(-c2n[nH]c(C)c2-c2ccc(OC)c(OC)c2)c(O)c1 | – | inactive: 10.2%
C=CCN1C(=O)CSc2ccc(C(=O)NCc3ccco3)cc21 | inconclusive: 22.4 µM [inhibitor, single point] | –
O=C(CCn1c(=O)c2sccc2n(Cc2cc(=O)n3ccccc3n2)c1=O)NCc1ccco1 | – | inactive: 1.71% [at 57.1 µM]
NS(=O)(=O)c1ccc(CCNC(=O)CN2CCN(Cc3cccc4ccccc34)CC2)cc1 | – | inactive: 11.2%
O=c1[nH]c2ccc(NC(=S)Nc3ccc(Cl)cc3Cl)cc2[nH]1 | inconclusive: 35.5 µM [inhibitor, partial curve] | –
O=C(C1=NNCC1c1ccc(Cl)cc1)C1CO1 (configuration not stated) | inconclusive: 50.1 µM [inhibitor, partial curve, poor fit] | –
COc1cccc(-c2nc(CS(=O)CC(=O)NCCc3ccccc3)c(C)o2)c1 (configuration not stated) | active: 28.2 µM | –
CN(Cc1ccccc1)C(NC(=O)c1ccccc1)C(Cl)(Cl)Cl (configuration not stated) | inconclusive: 31.6 µM [inhibitor, partial curve] | –

Reference: PubChem BioAssay AID588453 (National Center for Advancing Translational Sciences (NCATS), 2011)
